Sequences with one replicate were seen in a single cluster, so their values are uncertain.
These sequences were tested on ATP (assay: switch fluorescence ratio, 500 uM ATP over buffer (Cy3 cluster intensity, sum of 5 cycles each) (fold (ratio)); higher = stronger signal-on switching upon ATP binding; sequences stand for … in TCGTCGGCAGCGTCAGATGTGTATAAGAGACAGTTTTTTTTTTTTTTTTTTTTTTTTT…TC). Settings: aptamer strand: ATP DNA aptamer (quencher-CACCTGGGGGAGTATTGCGGAGGAAGG + anchor), 100 nM annealed; ATP concentration: 500 uM; one replicate.
Summary of the method: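 Exposure to 500 uM ATP lasted 15 min at 22 °C before imaging, and a selection-buffer image was taken beforehand, for Cy3-labelled switching-strand clusters on a modified Illumina MiSeq flow-cell annealed to 100 nM quencher-labelled ATP aptamer. Five buffer/ATP cycles were run with NaOH stripping and re-annealing between them. The fluorescence ratio per cluster is summed target-cycle over summed buffer-cycle Cy3 intensity, averaged per switch-domain sequence. Clusters outside 100-1000 RFU were excluded.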

Row | Sequence | switch fluorescence ratio
1 | TTCGGTACGG | 0.985
2 | TTCGGTATGA | 0.99
3 | TTCGGTATT | 0.998
4 | TTCGGTCC | 0.961
5 | TTCGGTGGTC | 0.963
6 | TTCGGTTGTC | 1.17
7 | TTCGGTTTTA | 1.01
8 | TTCGTCCATC | 1
9 | TTCGTCCCA | 0.982
10 | TTCGTCCGGT | 1.21
11 | TTCGTCTAT | 1.01
12 | TTCGTGATTC | 1.22
13 | TTCGTTCAAC | 1.03
14 | TTCGTTGAGC | 0.995
15 | TTCGTTGCAG | 1
16 | TTCTAAACAA | 1.02
17 | TTCTAACA | 1.06
18 | TTCTAACGAC | 0.963
19 | TTCTAAGATG | 1.02
20 | TTCTAAGCTT | 1.15
21 | TTCTAGAGTT | 1.02
22 | TTCTAGGATA | 0.984
23 | TTCTAGTACA | 0.994
24 | TTCTATTGCC | 1.05
25 | TTCTCAAACG | 1

Row | Sequence | switch fluorescence ratio
26 | TTCTCATAGA | 1.02
27 | TTCTCATGGA | 1.03
28 | TTCTCCTCGT | 1.06
29 | TTCTCCTTGC | 1.36
30 | TTCTCGAAT | 1.01
31 | TTCTCGAGGG | 1.04
32 | TTCTCGCCGG | 1.22
33 | TTCTCTGTCA | 1.05
34 | TTCTGACGTA | 1.06
35 | TTCTGATGGG | 1.01
36 | TTCTGATGTC | 0.936
37 | TTCTGCAATG | 4.55
38 | TTCTGGCGGT | 0.967
39 | TTCTGGGACG | 1.11
40 | TTCTGTAACG | 1.01
41 | TTCTTACAT | 1.05
42 | TTCTTAGAGG | 1
43 | TTCTTAGGC | 0.963
44 | TTCTTGTTTC | 0.949
45 | TTCTTTACGT | 1.01
46 | TTCTTTCTGC | 0.951
47 | TTCTTTGGG | 0.974
48 | TTCTTTTAAC | 1.07
49 | TTCTTTTCGC | 1.53
50 | TTGAAACTGG | 0.977

Row | Sequence | switch fluorescence ratio
51 | TTGAAATGAA | 0.999
52 | TTGAAATGAT | 1.02
53 | TTGAAGCCGT | 0.968
54 | TTGAAGGGAT | 1.11
55 | TTGAAGGTGA | 1.16
56 | TTGAATATGC | 1.1
57 | TTGAATGCAC | 1.08
58 | TTGACACAGG | 1.02
59 | TTGACAGCCT | 1.06
60 | TTGACCCGTC | 1.01
61 | TTGACCTTCC | 2.55
62 | TTGACCTTCG | 1.17
63 | TTGACGAGCT | 1.09
64 | TTGACGGGAA | 1.05
65 | TTGACGGT | 0.99
66 | TTGACGGTG | 0.997
67 | TTGACGTCTA | 1.25
68 | TTGACGTTAT | 1.26
69 | TTGAGAATTA | 0.976
70 | TTGAGCCTTT | 1.04
71 | TTGAGCTCAA | 1.02
72 | TTGAGGGTTA | 0.963
73 | TTGAGGTCGC | 0.944
74 | TTGAGTCATA | 1.02
75 | TTGATCTCTC | 0.994

Row | Sequence | switch fluorescence ratio
76 | TTGATCTGGG | 0.98
77 | TTGATGCGAT | 1.16
78 | TTGATGGAGT | 0.978
79 | TTGATGGCAG | 1.02
80 | TTGATGTGA | 1.01
81 | TTGATTCTAA | 0.94
82 | TTGATTCTTG | 1.03
83 | TTGCAAAAG | 1.05
84 | TTGCAAACAC | 1.47
85 | TTGCACCAGT | 1.01
86 | TTGCACCGTC | 1.07
87 | TTGCACGTCC | 1.13
88 | TTGCAGCCCG | 0.989
89 | TTGCAGGAAA | 1.01
90 | TTGCAGTCAA | 4.04
91 | TTGCAGTCGT | 1.03
92 | TTGCATCTTA | 0.997
93 | TTGCATCTTC | 1.01
94 | TTGCATTAAC | 1.1
95 | TTGCCCCAAA | 0.981
96 | TTGCCCCATT | 0.958
97 | TTGCCGTCAG | 1.06
98 | TTGCCGTCGC | 0.891
99 | TTGCGACAAA | 1.03
100 | TTGCGCCAGG | 1.27
